Experimental data published in PubChem BioAssay AID493208 (National Center for Advancing Translational Sciences (NCATS), 2011).
Screen size: about 44,000 compounds; about 340 (0.77%) were called active. About 5% were inconclusive and are not listed. The call rests on the fitted dose curve; in most records, active means well fitted inhibition curve with a large enough effect; inconclusive means small, poorly fitted or top-dose-only effect; inactive means flat fitted curve, though single readings scatter. The list shows a part of the results.

Assay: Acumen qHTS Assay for Inhibitors of the mTORC1 Signaling Pathway in MEF (Tsc2-/-, p53-/-) Cells: Sytravon;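 further: plate controls were DMSO for no effect and rapamycin for full effect; nearly all actives have a fitted effect of over 50% in size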
Settings: phospho-rpS6 immunofluorescence/PI, 24 h; series mostly up to 38.3 µM; activity change, negative = inhibition: at the top concentration
Method in brief: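 Readout is phospho-S6 Alexa 488 signal normalized to PI per well, reported as % active cells with thresholds set from rapamycin (7.5 nM) and DMSO controls. Cells: Tsc2-/-, p53-/- MEFs, 24 hrs compound at 37 C; PI cell number serves as viability.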

Activity change, negative = inhibition, inactive:
COc1ccccc1NC(=O)C1=C(C)Nc2nnnn2C1c1ccc(C(F)(F)F)cc1 (stereo unspecified) 4.51%, CC(C)(C)CC(=O)NCC(c1ccc2c(c1)OCO2)N1CCN(c2ccccc2)CC1 (stereo unspecified) -0.112%, O=C1C(c2ccc(F)cc2)N(CCc2ccc(Cl)cc2)C(=O)CN1C1CCCCCC1 (stereo unspecified) -6.63%, CC(=O)c1ccc(NC(=O)c2cc(-c3ccc(C)s3)nc3ccccc23)cc1 2.51%, CCC(C)NC(=O)Cn1c(=O)n(CCCCCC(=O)NCc2ccccc2Cl)c(=O)c2sccc21 (stereo unspecified) 12.3%, O=C(NCc1cccc(Br)c1)c1cnn(-c2ccc(F)cc2)c1-n1cccc1 -0.939%, COc1cc(NC(=O)N2c3ccccc3Sc3ccccc32)cc(OC)c1 -2.92%, CCOC(=O)N1CCc2c(sc3c2c(=O)n(CCc2ccccc2)c(=O)n3CC(=O)Nc2ccc(C)cc2)C1 -3.14%, CCOC(=O)c1ccc(NC(=O)CSc2ccc3ccccc3n2)cc1 3.89%, COc1ccccc1C(=O)NCC(c1cccnc1)N1CCc2ccccc2C1 (stereo unspecified) 8.93%, CCCOC(=O)c1c(NC(=O)C(C)Sc2nc(-c3ccccc3)cc(C(F)(F)F)n2)sc(C(=O)N(C)C)c1C (stereo unspecified) -13.6%, Cc1cccc(N2CCN(C(=O)CN3C(=O)CSc4c3c(C)nn4-c3ccccc3)CC2)c1C 0.918%, CCOc1ccc(S(=O)(=O)c2c(C(=O)c3ccc(CC)cc3)cnc3ccc(C)cc23)cc1 2.75%, CCc1ccc(NC(=O)[C@H](Cc2ccccc2)N2Cc3ccccc3C2=O)cc1 -1.42%, COc1cc(NC(=O)CCc2c(C)nn(-c3ccc4nnc(C)n4n3)c2C)cc(OC)c1OC -17.2%, CCOc1ccc(N2CC(NC(=O)c3cccs3)CC2=O)cc1 (stereo unspecified) -0.525%, Cc1ccc(S(=O)(=O)n2nc(-c3ccccc3)nc2NCc2ccc(Cl)cc2)cc1 -3.11%, COc1ccc(C2C(=O)N(C3CCCCCC3)CC(=O)N2Cc2ccc(C)cc2)cc1 (stereo unspecified) 8.63%, O=C1CC(c2nc(-c3ccc(Cl)cc3)no2)CN1c1ccc2c(c1)OCCO2 (stereo unspecified) 0.374%, O=C(CSc1nc2c([nH]c3ccccc32)c(=O)n1-c1ccccc1)N1CCc2ccccc21 0.7%, CCOC(=O)c1c(NC(=O)c2cc3ccccc3c(=O)o2)sc2c1CCC(C)C2 (stereo unspecified) 3.26%, COc1ccc(-n2c(=O)c3ccccc3n(CC(=O)Nc3ccccc3OC)c2=O)cc1 -2.69%, Cc1ccc(SCC(=O)Nc2ccc3oc(-c4ccccc4C)nc3c2)cc1 -2.29%, COc1cc(OC)cc(C(=O)Nc2cc3c(cc2N2CCCC2)n(C)c(=O)c(=O)n3C)c1 8.91%, CCOc1ccc(NC(=O)c2cnc3ccccn3c2=O)cc1 2.42%, Cc1ccc2c(CC(=O)Nc3c(C(=O)c4ccc(C)c(F)c4)oc4ccccc34)coc2c1 2.99%
